# Test results published in paper PMC9303297, “Characterization of an autonomous pathway complex that promotes flowering in Arabidopsis” (Nucleic Acids Research, 2022).
# Results are given in words; binding and its absence hold for the method and conditions named. Some entries that bind do so weakly or less than the wild type. Tags and fused reporters may be left off the sequences shown.
# T1: SDG26, full-length, yeast two-hybrid fusion (Arabidopsis thaliana) (UniProt Q84WW6)
# T1 sequence: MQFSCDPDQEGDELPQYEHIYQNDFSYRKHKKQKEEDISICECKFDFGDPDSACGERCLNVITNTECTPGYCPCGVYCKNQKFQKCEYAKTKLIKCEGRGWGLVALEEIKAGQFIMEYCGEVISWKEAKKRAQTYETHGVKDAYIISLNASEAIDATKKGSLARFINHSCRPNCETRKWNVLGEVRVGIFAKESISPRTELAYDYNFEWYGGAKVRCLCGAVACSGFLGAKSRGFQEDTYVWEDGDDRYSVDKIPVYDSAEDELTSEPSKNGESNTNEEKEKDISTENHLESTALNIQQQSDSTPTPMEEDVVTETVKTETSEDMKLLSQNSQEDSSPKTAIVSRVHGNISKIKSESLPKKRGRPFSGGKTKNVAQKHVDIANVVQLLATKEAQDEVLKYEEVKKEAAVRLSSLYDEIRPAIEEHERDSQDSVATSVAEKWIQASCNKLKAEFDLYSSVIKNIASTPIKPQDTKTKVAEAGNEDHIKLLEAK
# T2: LD, full-length, yeast two-hybrid fusion (Arabidopsis thaliana) (UniProt Q38796)
# T2 sequence: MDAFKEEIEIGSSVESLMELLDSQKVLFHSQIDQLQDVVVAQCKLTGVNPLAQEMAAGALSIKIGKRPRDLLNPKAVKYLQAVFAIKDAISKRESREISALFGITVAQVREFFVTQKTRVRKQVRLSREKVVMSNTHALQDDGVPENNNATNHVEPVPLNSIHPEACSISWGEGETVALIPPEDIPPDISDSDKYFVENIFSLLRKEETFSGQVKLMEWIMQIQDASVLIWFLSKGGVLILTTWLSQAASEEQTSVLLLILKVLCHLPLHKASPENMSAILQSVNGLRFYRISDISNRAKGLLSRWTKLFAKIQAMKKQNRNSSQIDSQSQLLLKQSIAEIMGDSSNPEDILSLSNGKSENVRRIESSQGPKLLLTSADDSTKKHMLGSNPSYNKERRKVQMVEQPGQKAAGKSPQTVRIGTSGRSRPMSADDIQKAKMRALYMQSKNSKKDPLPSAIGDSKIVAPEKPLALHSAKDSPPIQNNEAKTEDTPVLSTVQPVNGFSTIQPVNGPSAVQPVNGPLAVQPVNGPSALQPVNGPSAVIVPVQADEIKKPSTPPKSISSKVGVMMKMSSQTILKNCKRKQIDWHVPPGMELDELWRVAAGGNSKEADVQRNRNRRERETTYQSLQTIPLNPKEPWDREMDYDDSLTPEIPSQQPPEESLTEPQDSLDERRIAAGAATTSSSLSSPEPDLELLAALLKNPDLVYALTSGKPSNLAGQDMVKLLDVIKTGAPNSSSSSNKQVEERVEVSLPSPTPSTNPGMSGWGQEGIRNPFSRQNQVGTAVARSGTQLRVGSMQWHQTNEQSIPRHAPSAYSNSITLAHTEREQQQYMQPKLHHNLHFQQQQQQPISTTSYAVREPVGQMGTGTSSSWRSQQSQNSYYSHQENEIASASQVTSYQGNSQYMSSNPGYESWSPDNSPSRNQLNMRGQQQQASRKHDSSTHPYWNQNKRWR
# B1: EFL1, full-length, yeast two-hybrid fusion (protein, UniProt O80877 1-125)
# chain: MEASRNRSLVGNNRSPEMNENDGEDVAASAAVEDVEVWDTLSNGFKRAQLYLDQNRDLIQRVNENHMSRIPDNVSRNVGLINEINGNISQVMEIYSDLSLNFAKKFDQRRRTTKDGDTTTTTTGS
# B2: EFL4, full-length, yeast two-hybrid fusion (protein, UniProt Q570U6 1-114)
# chain: MEGDVLSGFGDRHNMDGKLLQSFQKSFVDVQDILDQNRLLINEINQNHESKQPDNLGRNVGLIKELNNNIRRVASLYGDLSHSFARSVDASSEGESSGTLKSDGKANQKRFRSG
# B3: EFL2, full-length, yeast two-hybrid fusion (protein, UniProt Q94BS8 1-119)
# chain: MESRMEGDVYSGFGERYQMDGKLLQNFQKSFVQVQDILDQNRLLINEINQNHESKQADHLGRNVGLIRELNNNIRTVASLYGDLSHSFARSVDASSEGESTGTLKSDGKANNQKRFRSG
# B4: EFL3, full-length, yeast two-hybrid fusion (protein, UniProt Q8S8F5 1-109)
# chain: MEGDTISRMMGSGVQMDGKILQTFEKSFVQVQNILDHNRLLINEINQNHESKIPDNLGRNVGLIRELNNNVRRVAHLYVDLSNNFSKSMEASSEGDSSEGRGNRRIRPA
# B5: FLD, full-length, yeast two-hybrid fusion (protein, UniProt Q9CAE3 1-789)
# chain: MVSFSAPKKRRRGRSQRSMSSLNSLPVPNVGLLPGNSNFVSSSASSSGRFNVEVVNGSNQTVKSYPGIGDEIITINKEATTEALLALTAGFPADSLTEEEIEFGVVPIVGGIEQVNYILIRNHIISKWRENISSWVTKEMFLNSIPKHCSSLLDSAYNYLVTHGYINFGIAQAIKDKFPAQSSKSSVIIVGAGLSGLAAARQLMRFGFKVTVLEGRKRPGGRVYTKKMEANRVGAAADLGGSVLTGTLGNPLGIIARQLGSSLYKVRDKCPLYRVDGKPVDPDVDIKVEVAFNQLLDKASKLRQLMGDVSMDVSLGAALETFRQVSGNDVATEEMGLFNWHLANLEYANAGLVSKLSLAFWDQDDPYDMGGDHCFLPGGNGRLVQALAENVPILYEKTVQTIRYGSNGVKVTAGNQVYEGDMVLCTVPLGVLKNGSIKFVPELPQRKLDCIKRLGFGLLNKVAMLFPYVFWSTDLDTFGHLTEDPNYRGEFFLFYSYAPVAGGALLIALVAGEAAHKFETMPPTDAVTRVLHILRGIYEPQGINVPDPLQTVCTRWGGDPFSLGSYSNVAVGASGDDYDILAESVGDGRLFFAGEATTRRYPATMHGAFVTGLREAANMAQSAKARGIRKRIDRNPSRNAHSCAILLADLFRDPDLEFGSFCIIFSRRNPDPKSPAILRVTLSEPRKRNEDPKADQHSNKILFQQLQSHFNQQQQIQVYTLLTRQQALDLREVRGGDEKRLYYLCETLGVKLVGRKGLGVGADSVIASIKAERTGRKLPSSSTSGTKSG
# Target: T1, SDG26, full-length, yeast two-hybrid fusion (Arabidopsis thaliana)
# Assay: two-hybrid; GAL4 AD (pGADT7, AH109) and BD (pGBKT7, Y187) fusions, mated; growth on SD-Leu/Trp/His, 3-amino-1,2,4-triazole to reduce background
row,binding,Binder
1,no binding,B1
2,binds,B2
3,binds,B3
4,no binding,B4

# Target: T2, LD, full-length, yeast two-hybrid fusion (Arabidopsis thaliana)
# Assay: as above
row,binding,Binder
1,binds,B2
2,binds,B5
3,binds,B3
